From the supplement of paper PMC3334620
Whole data set: some 33,000 sequences, median “E-score (-0.5 to 0.5)” near -0.053, cut for the highest 2% near 0.37. This is one part of the list.

molecular target: Hap1 (UniProt P0CE41); test: PBM E-score (8-mer binding enrichment) (E-score (-0.5 to 0.5)); higher = stronger / more preferred TF binding; most listed sequences are background and not binding sites; conditions: protein concentration: 200 nM; construct: GST-DNA-binding domain
How it was run: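 Universal all-10-mer Agilent arrays, fresh or stripped once, were converted to double-stranded form by primer extension. GST-tagged yeast transcription factors from PURExpress in vitro transcription/translation, full-length or DNA-binding domain only, were applied at about 100-200 nM and detected with fluorescent anti-GST. After masliner normalisation, the Universal PBM Analysis Suite scored each ungapped eight-base word together with its reverse complement by E-score.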

UniProt P0CE41, sequence (P0CE41 whole entry, the tested form may be a part): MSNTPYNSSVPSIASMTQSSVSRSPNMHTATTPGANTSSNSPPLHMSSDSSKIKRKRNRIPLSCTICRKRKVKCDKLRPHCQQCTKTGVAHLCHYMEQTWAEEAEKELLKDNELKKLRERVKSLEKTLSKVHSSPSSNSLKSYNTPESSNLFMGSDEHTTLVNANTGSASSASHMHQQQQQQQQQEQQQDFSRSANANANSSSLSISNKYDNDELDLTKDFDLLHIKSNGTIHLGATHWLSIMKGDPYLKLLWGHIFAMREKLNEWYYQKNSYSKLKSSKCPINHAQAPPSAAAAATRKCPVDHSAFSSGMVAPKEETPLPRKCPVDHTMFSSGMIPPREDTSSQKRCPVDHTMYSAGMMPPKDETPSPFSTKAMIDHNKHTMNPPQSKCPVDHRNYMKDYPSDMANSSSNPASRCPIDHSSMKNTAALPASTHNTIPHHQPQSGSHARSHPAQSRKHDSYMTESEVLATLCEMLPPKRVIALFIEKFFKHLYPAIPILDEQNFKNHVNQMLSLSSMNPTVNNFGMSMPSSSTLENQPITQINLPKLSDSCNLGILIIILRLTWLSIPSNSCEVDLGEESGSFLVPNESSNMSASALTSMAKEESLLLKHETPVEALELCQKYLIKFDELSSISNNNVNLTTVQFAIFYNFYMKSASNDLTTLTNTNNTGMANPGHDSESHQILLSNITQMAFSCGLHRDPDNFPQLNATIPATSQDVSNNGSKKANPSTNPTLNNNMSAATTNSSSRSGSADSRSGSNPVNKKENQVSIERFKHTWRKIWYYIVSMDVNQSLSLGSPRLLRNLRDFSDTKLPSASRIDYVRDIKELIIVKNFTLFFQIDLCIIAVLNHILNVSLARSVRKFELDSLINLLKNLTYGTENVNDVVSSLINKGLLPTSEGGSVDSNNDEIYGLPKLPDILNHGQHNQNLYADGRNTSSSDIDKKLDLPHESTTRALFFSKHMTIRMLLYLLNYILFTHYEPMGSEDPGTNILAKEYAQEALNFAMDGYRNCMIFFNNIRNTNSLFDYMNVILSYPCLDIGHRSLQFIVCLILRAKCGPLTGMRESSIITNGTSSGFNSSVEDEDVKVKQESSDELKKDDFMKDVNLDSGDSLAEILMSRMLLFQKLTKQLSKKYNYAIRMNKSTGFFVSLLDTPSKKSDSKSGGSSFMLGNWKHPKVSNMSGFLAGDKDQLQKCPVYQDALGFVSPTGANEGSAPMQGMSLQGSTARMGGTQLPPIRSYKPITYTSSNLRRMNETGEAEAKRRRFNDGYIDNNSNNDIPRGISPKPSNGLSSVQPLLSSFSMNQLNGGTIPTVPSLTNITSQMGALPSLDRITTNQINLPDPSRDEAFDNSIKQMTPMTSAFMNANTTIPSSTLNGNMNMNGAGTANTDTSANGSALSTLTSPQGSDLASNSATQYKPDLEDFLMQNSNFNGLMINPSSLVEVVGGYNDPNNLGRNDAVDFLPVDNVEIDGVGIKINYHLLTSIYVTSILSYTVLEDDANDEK

Row | Sequence | PBM E-score
1 | AAACCCTA | -0.136
2 | ATCCTACA | -0.222
3 | CGCAAGGC | 0.142
4 | CGGAGCAC | 0.196
5 | ATCATGCG | -0.113
6 | CGTAACAG | 0.0357
7 | ACGGGGAG | -0.0069
8 | ATTCAAAG | -0.213
9 | CGCGGGTC | 0.284
10 | CAACGACA | -0.121
11 | CCTTAGTA | -0.114
12 | AACTCCGC | 0.389
13 | CAGACCTA | -0.284
14 | AGTTCGAG | -0.119
15 | AAATTCAC | 0.0387
16 | GATAAATA | 0.144
17 | GGCTAAAC | 0.00914
18 | TGGTTGAA | -0.143
19 | ATGATCCC | 0.0807
20 | CACCGAAG | 0.245
21 | AACGTCAC | -0.242
22 | GGGCGCAA | -0.0038
23 | GGATTATA | 0.24
24 | CTCTGCAA | -0.124
25 | ATTCCTAA | -0.0333

Row | Sequence | PBM E-score
26 | GCGACTCC | -0.196
27 | TGTCATAA | -0.281
28 | GATCAAAA | -0.107
29 | AAACGAAG | -0.0629
30 | CGACGTTC | -0.0677
31 | GTGCGCCA | -0.0846
32 | GTAAAAAA | 0.0671
33 | TGGCTAAA | -0.0452
34 | AACTCTTG | -0.302
35 | AGTCTGGG | -0.293
36 | AACACGGC | 0.104
37 | AGCAATGC | -0.0854
38 | AGTCGATA | -0.0174
39 | AGATGGGA | -0.129
40 | AGACAGAT | -0.15
41 | ATAAGGCC | 0.196
42 | CACTAATG | -0.124
43 | ACCAGTCT | -0.315
44 | GTGACGCA | -0.127
45 | AAGTATAC | -0.111
46 | ACGTCTGG | -0.202
47 | ACTCCCCC | 0.029
48 | ACTTGAAC | -0.0526
49 | ACCGGTTG | 0.245
50 | CGTCTCTC | 0.0635

Row | Sequence | PBM E-score
51 | ACTCTTCA | -0.163
52 | GTCGAATA | -0.0336
53 | CATAATGG | -0.101
54 | ATACGCTA | 0.058
55 | AGACGGAG | 0.161
56 | GATATGAA | -0.0256
57 | CACAGCGA | -0.00276
58 | CCGTTACC | 0.258
59 | ATCTTAGA | 0.066
60 | ATTATGTA | 0.033
61 | GACTACAA | -0.183
62 | ACGAGCGA | -0.259
63 | ATCTCGAC | -0.0457
64 | CGCAGATA | 0.202
65 | CAGGAGGA | -0.135
66 | GAATGGCA | 0.111
67 | GTATCTAA | 0.00297
68 | AGGCAGTA | -0.347
69 | TAACGAAA | -0.0382
70 | GAACATAC | 0.125
71 | ACAAAAAC | -0.0594
72 | GGCAACAC | -0.0557
73 | TCCGTACA | 0.267
74 | AGTCGTTA | -0.192
75 | ACGGTGTA | 0.0706

Row | Sequence | PBM E-score
76 | CGTCCCCC | 0.0215
77 | ATAATCGG | 0.274
78 | CCTTGTTA | -0.191
79 | ATACCATC | -0.0305
80 | ATCTGATG | -0.241
81 | GCGGAAAC | 0.24
82 | ACAGTGCG | -0.131
83 | GAGCGATA | 0.242
84 | ACTCCTCG | -0.0163
85 | AAGAATAT | -0.00079
86 | GCGCACAA | -0.0213
87 | CTAGTTGC | -0.0278
88 | TCTACAAA | -0.269
89 | AATGTAGT | -0.112
90 | ACTTGAGA | -0.185
91 | AACATGTA | -0.0249
92 | AATCTTAT | -0.0635
93 | ACTTTCCG | 0.285
94 | AGCAATAC | -0.0164
95 | ATCAATTA | 0.0775
96 | ACCTTGGG | -0.0978
97 | AGGTGGCG | -0.0898
98 | TGTGTGAA | -0.247
99 | TCATGAAA | -0.00377
100 | GAGCCGGC | 0.339

Row | Sequence | PBM E-score
101 | AGTTTATG | -0.185
102 | CACCTCTC | -0.122
103 | CTAAGATA | -0.138
104 | CAGTTCGG | 0.296
105 | ATGTGTCG | -0.0893
106 | CGTGAGCC | -0.185
107 | GTTTTCGA | -0.166
108 | CACAAATC | -0.00686
109 | CATTGGTC | -0.0269
110 | AACGAAAG | -0.199
111 | GGGGTGGA | -0.0146
112 | AAAGTTCC | 0.214
113 | CAACAGTA | -0.151
114 | AATATTCA | -0.174
115 | AAGTCCCA | -0.0327
116 | AGTAGATC | 0.0489
117 | CTGAGTGA | 0.041
118 | AAAAAGCG | 0.198
119 | ACCGACAA | 0.304
120 | GGGGCTCA | -0.167
121 | CACTTACA | -0.168
122 | CCCTATCC | -0.0196
123 | AAAGAAAT | -0.0425
124 | GCTGTCGA | -0.0635
125 | ATTCCCCG | 0.286

Row | Sequence | PBM E-score
126 | CATTTGAG | -0.00565
127 | CACTGCTG | -0.261
128 | CGGGACCA | 0.15
129 | AATTTCAT | -0.311
130 | ACAGCGCC | 0.101
131 | AAGACCTA | -0.00564
132 | ACAGGTCA | -0.221
133 | CTCGGGTA | 0.264
134 | CGCCCGTC | 0.296
135 | AATACGGG | 0.12
136 | GTGTACTA | -0.143
137 | GTCGGAAA | 0.361
138 | GCGCCGCC | 0.136
139 | ATTCTACG | 0.0383
140 | GTAAGGTA | -0.212
141 | AGAGGAAT | -0.205
142 | GATGCGTA | -0.193
143 | CAGTTCTC | -0.0677
144 | CAAGCTTG | -0.176
145 | ATGCCCTG | -0.187
146 | AAACCCCC | 0.0478
147 | AGACTTTC | -0.0993
148 | CTATCTCA | -0.0749
149 | ACATAATC | 0.0839
150 | AGAGTATA | -0.147

Row | Sequence | PBM E-score
151 | GAGTTCCC | 0.103
152 | ATGAGCCG | 0.0868
153 | ACCTTCTG | 0.0098
154 | CATATTCG | 0.0356
155 | GCGTATAA | 0.143
156 | GTAGACAA | -0.0438
157 | ATCTATAG | -0.165
158 | CTGATCCA | -0.0867
159 | ACATCAAG | -0.0681
160 | CGCGCTCC | 0.206
161 | AACTCCGG | 0.481
162 | GAGTGCTA | -0.0599
163 | AGTTTGTC | -0.117
164 | ATCGCTAC | 0.0409
165 | AGTTACCG | 0.266
166 | ACGGTATG | -0.0656
167 | TGAACCAA | -0.232
168 | AAATCAAA | -0.123
169 | AAAGAGCG | 0.0872
170 | AACAAGCC | -0.154
171 | GCCCCACA | -0.237
172 | GCGGGTCC | 0.187
173 | GCTATTCC | 0.125
174 | CGTCCTTA | -0.0249
175 | AATATAGG | 0.0252

Row | Sequence | PBM E-score
176 | TCGAACAA | -0.132
177 | CTGGCTCA | -0.224
178 | CGTGGGAC | -0.0224
179 | ACATCTGG | -0.136
180 | GAAGGAGC | -0.223
181 | CTCCACGA | 1e-05
182 | GAATTGAC | 0.0531
183 | ATGCCTTG | -0.2
184 | CCAGGGCG | 0.199
185 | CGACGGAG | 0.287
186 | ATTGATGG | -0.0931
187 | CACCGGTG | 0.24
188 | CCTACGAA | -0.163
189 | GAAGGTCA | -0.223
190 | CCGTTCAC | -0.0828
191 | ACCTCCTC | -0.197
192 | CGCATCGC | -0.0669
193 | GAATCTCC | 0.294
194 | CCCTTCTC | -0.175
195 | CTTGTGTA | -0.254
196 | CCGAAAGA | 0.319
197 | ATCCTCCG | 0.243
198 | CTAGTAAC | -0.206
199 | GACAATAA | 0.0844
200 | CGACACTC | 0.081

Row | Sequence | PBM E-score
201 | ATCGTCGC | -0.126
202 | CAGCGCGG | 0.164
203 | CGATTCTC | 0.0688
204 | ACGTACTA | -0.104
205 | GAGGGGAA | 0.148
206 | GACCCGCA | 0.128
207 | CCTACTCC | -0.105
208 | GCGCTCCA | -0.00761
209 | CGGACGAA | 0.431
210 | ACGGGCCC | 0.214
211 | GGACTTGA | 0.0649
212 | ATTCTTGG | 0.0308
213 | ATTAAACC | 0.181
214 | AGACCCCT | -0.281
215 | ATCAATGA | -0.0255
216 | GGCCCACC | 0.0393
217 | CACTAAGG | 0.0292
218 | ACACATAT | -0.0802
219 | CTGAGGTA | -0.0816
